Experimental data from PubChem BioAssay AID485313 (National Center for Advancing Translational Sciences (NCATS), 2010).
Hit rate of the full screen: of about 320,000 compounds, about 7,600 (2.4%) were called active. Inconclusive means that the source gave no clear call. Such entries were picked first, then a sample of the others. Calls follow the shape of the dose curve; as a rule, active = well fitted activation curve with a large enough effect; inconclusive = small, poorly fitted or top-dose-only effect; inactive = no such curve, though single readings can be large or run the other way. No potency is given beside an inconclusive call; the fits are too rough.

Experiment: qHTS Assay for NPC1 Promoter Activators; also: nearly all actives have a fitted effect of over 60% in size; as to activation: % of control where 0% means no effect
Details: Huh7 NPC1 promoter luciferase reporter, 24 h; series mostly up to 9.22 µM; activation: at the top concentration
Text: NIH Chemical Genomics Center [NCGC] NIH Molecular Libraries Probe Production centers Network [MLPCN] MLPCN Grant: MH089375-01A1 Assay Submitter (PI): Yiannis A. Ioannou NCGC Assay Overview: Niemann Pick Type C (NPC) is a rare neurodegenerative lipidosis that is characterized by lipid storage in the endosomal/lysosomal system. Treatment modalities for this devastating disease are currently non-existent due to the severe obstacles associated with accessing the central nervous system with proteins or genes. The majority of mutations causing NPC disease are missense mutations that are distributed throughout the length of the NPC1 protein, with the most prevalent being the I1061T allele. Although NPC1 mutant proteins may be functional, they are typically trapped in the ER due to misfolding. […] We have developed and optimized a cell based luciferase reporter assay in 1536 well format for the identification of up-regulators of the mutant NPC1 promoter.
The NPC1 promoter is cloned in front of the luciferase reporter gene, therefore NPC promoter activation results in luciferase expression. Frozen stock of the NPC1 promoter transfected Huh7 cells were obtained from the laboratory of Dr. Yiannis Ioannou (The Mount Sinai School of Medicine, New York, NY). Cells were propagated and maintained at NCGC in medium containing RPMI-1640 supplemented with 10% FBS, 2mM L-glutamine, and 50ug/ml penicillin/streptomycin. Cells were harvested in and plated for assays in OP-MEM I reduced-serum medium supplemented with 10% FBS. The Amplite luciferase reporter gene assay kit was purchased from ABD Bioquest and prepared/stored according to manufacturers recommendations. qHTS Assay Setup: 1.#Dispensed 5ul of Huh7 cells stably expressing NPC1-luciferase at a density of 1500 cells per well 1536-well plates. 2.#Incubate cells at 37C, 5% CO2, and 95% humidity for 2 hours. 3.#Transferred 23nl per well of compound in DMSO solution. 4.#Incubated at 37C, 5% CO2, and 95% humidity for 24 hours. 5.#Dispensed 3ul per well of Amplite reagent(ABD Bioquest) per well. 6.#Incubate at ambient for 10 minutes. 7.#Read using the luminescence protocol on the ViewLux plate reader (Perkin Elmer).
Potency is read from the fitted curve at half-maximal effect; tags tell the direction and shape of the fitted curve.

| SMILES | activation | Potency |
| --- | --- | --- |
| COc1ccc([N+](=O)[O-])cc1N=Cc1c(O)n(CCc2ccccc2)c(=O)n(C(C)C)c1=O | inactive: -2.81% |  |
| COc1ccc(NC2=NC(C)(C)CS2)cc1 |  | inconclusive [activator, partial curve] |
| O=C(/C=C/c1ccccc1)C1C(=O)c2ccccc2C1=O |  | active: 3.98 µM |
| Cc1cccn2c(=O)c3c(nc12)N1CCCCCC1C1(C3)C(=O)N(C)C(=O)N(C)C1=O (stereo not drawn) | inactive: -2.08% |  |
| CC(=O)Nc1cccc2c1Cc1ccccc1-2 |  | inconclusive [activator, partial curve] |
| Cc1ccc(OCCOc2cccc(C=C3C(=O)NC(=O)NC3=O)c2)cc1 |  | active: 0.316 µM |
| CCC(=O)Nc1ccc(-c2ccc(N3CCN(C)CC3)nn2)cc1 |  | inconclusive [activator, single point] |
| COc1ccc(C(=O)CCNc2ccc(F)cc2)cc1 |  | inconclusive [activator, partial curve] |
| CN1CC=C(/C=C/c2ccc(-c3ccccc3)cc2)CC1 |  | active: 3.16 µM |
| Cc1cc(O)c2c(c1)C(=O)c1cc(O)cc(O)c1C2=O |  | inconclusive [activator, single point] |
| O=C(CSc1nnc(NC(=O)c2cccc(F)c2)s1)NCc1ccco1 |  | inconclusive [activator, partial curve] |
| O=c1c2ccccc2[nH]c(=S)n1-c1ccc2c(c1)OCCO2 |  | inconclusive [activator, single point] |
| Clc1ccc2sc(C3CCNCC3)nc2c1 |  | inconclusive [activator, partial curve] |
| COc1ccc(CCn2c(O)c(C=NCc3cccnc3)c(=O)[nH]c2=O)cc1OC | inactive: 1.21% |  |
| Cc1ccc(-n2c(O)c(C=Nc3ccccc3N)c(=O)[nH]c2=O)cc1C |  | inconclusive [activator, single point] |
| Cc1c(OC(=O)N(C)C)ccc2c1O/C(=C\c1ccco1)C2=O |  | inconclusive [activator, partial curve] |
| Cc1nc2ccc(NC(=O)C3COc4ccccc4O3)cc2s1 (stereo not drawn) |  | inconclusive [activator, single point] |
| COc1ccc(-n2nc(C(=O)NCC(=O)N3CCC4(CC3)OCCO4)c3ccccc3c2=O)cc1 |  | inconclusive [activator, single point] |
| CCC(=NCCN1CCOCC1)c1c(O)n(-c2ccccc2C)c(=O)[nH]c1=O |  | inconclusive [activator, single point] |
| CCCCCCOc1ccc(CN2CCN(C)CC2)cc1 |  | inconclusive [activator, single point] |
| CN1CCc2c(C#N)c(Cl)nc(Cl)c2C1 | inactive: 1.88% |  |
| Cc1ccc(-n2sc3ccccc3c2=O)cc1 |  | inconclusive [activator, single point] |
| CSc1cccc(CNC(=O)C2CCC(=O)N(Cc3cccc(C(F)(F)F)c3)C2)c1 (stereo not drawn) |  | inconclusive [activator, single point] |
| Cc1cc(C(=O)Nc2ccccc2)nn1C(C)(C)C |  | active: 2.24 µM |

| SMILES | activation | Potency |
| --- | --- | --- |
| Nc1cc2nc3ccccc3nc2cc1N |  | inconclusive [activator, single point] |
| O=C(CN1CCCCC1)c1ccccc1Cl | inactive: 3% |  |
| COc1ccccc1OCCCn1cc(C(=O)c2ccco2)c2ccccc21 |  | inconclusive [activator, single point] |
| CC(=NCC1CCCO1)c1c(O)n(C2CCCCC2)c(=O)[nH]c1=O (stereo not drawn) |  | inconclusive [activator, single point] |
| CCCCCCOc1ccc(CN2CCN(CCO)CC2)cc1 |  | active: 2.24 µM |
| O=C(Cc1cccc(C(F)(F)F)c1)N1CCN(CC(=O)N2CCCC2)CC1 | inactive: 3.91% |  |
| CCc1ccc(N2C(=O)NC(=O)/C(=C/c3cccn3CCOc3ccc(C(C)CC)cc3)C2=O)cc1 (stereo not drawn) |  | inconclusive [activator, partial curve] |
| CN(C)C(CNC(=O)Cc1ccc(Br)cc1)c1ccccc1 (stereo not drawn) | inactive: -2.72% |  |
| O=C(Nc1ccccc1F)Oc1cccc(OC(=O)Nc2ccccc2F)c1 |  | active: 3.55 µM |
| COc1cccc(C2=NOC(C(=O)N3CCC4(CC3)OCCO4)C2)c1 (stereo not drawn) |  | inconclusive [activator, partial curve] |
| CN(C)C(=O)Oc1ccc(Cl)c2ccccc12 |  | active: 4.47 µM |
| CCCCCn1c(=O)c(C(=O)Nc2ccccc2Cl)c(O)c2ccccc21 |  | inconclusive [activator, partial curve] |
| O=C(O)c1cc[c]([Hg][Cl])cc1 |  | inactive |
| COC(=O)C(O)(c1ccc(NC(=O)NC2CCCCC2)cc1)C(F)(F)F (stereo not drawn) |  | inconclusive [activator, single point] |
| C=CCn1c(=O)c(C=Nc2cccc([N+](=O)[O-])c2)c(O)n(CCCC)c1=O |  | inconclusive [activator, single point] |
| CCC(=O)Nc1ccc(C(=O)OCc2ccccc2Cl)cc1 |  | inconclusive [activator, partial curve] |
| O=C1N=C(N2CCCCC2)SC1=C1CCCCC1 |  | inconclusive [activator, partial curve] |
| COc1ccc(-c2nc3ccccc3c(=O)o2)cc1 |  | inconclusive [activator, partial curve] |
| Cc1ccc(-c2nc3ccccc3c(=O)n2-c2ccncc2)cc1 | inactive: -0.627% |  |
| COc1ccc(-n2nc(C(=O)NCC(=O)N3CCC4(CC3)OCCO4)c3ccccc3c2=O)c(OC)c1 |  | inconclusive [activator, single point] |
| O=C(c1ccccc1)c1ccc(N=Nc2c(O)[nH]c(=O)[nH]c2=O)cc1 | inactive: -9.03% |  |
| CC(C)(C)C(=O)c1cn(CC(=O)NCc2ccco2)c2ccccc12 |  | inconclusive [activator, single point] |
| Cc1nc2cc(C(F)(F)F)ccc2n1C1CCN(Cc2nnnn2Cc2cccs2)CC1 | inactive: -2.37% |  |
| C[C@]12CCC3[C@@H](CCC4=CC(=O)CC[C@@]43C=O)C1CCC2=O (stereo partly drawn) | inactive: 6.43% |  |
